The text below walks through data of paper PMC8313700.

Protein sequences, listed by entry. Tags and fused reporters are not part of them. Lines headed by an entry give the natural chain unless they say otherwise; changes in a name come on top. Residues count along the entry.
UniProt P06748: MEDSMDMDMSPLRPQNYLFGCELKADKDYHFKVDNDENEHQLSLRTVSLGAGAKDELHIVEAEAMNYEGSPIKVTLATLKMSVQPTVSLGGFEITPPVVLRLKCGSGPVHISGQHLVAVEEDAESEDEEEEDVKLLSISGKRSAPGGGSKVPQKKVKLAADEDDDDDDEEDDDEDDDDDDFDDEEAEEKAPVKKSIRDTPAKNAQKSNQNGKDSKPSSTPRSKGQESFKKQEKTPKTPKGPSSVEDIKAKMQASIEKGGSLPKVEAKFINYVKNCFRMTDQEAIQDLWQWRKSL
GST-NPM1 (aa1-119), N-terminal region: residues 1-119 of P06748
GST-NPM1 (aa120-188): residues 120-188 of P06748
GST-NPM1 (aa189-294): residues 189-294 of P06748

Results are given in words; binding and its absence hold for the method and conditions named. In cells and extracts the contact can be indirect. Some binding calls cover weakened binding; strength is not graded here. For some assays here: Sequences can lack the tags named with a protein.

Test [1] addresses T1, Heme oxygenase-1 (HO-1), endogenous, induced by Hemin in HUVECs (human (endogenous in HUVECs)) (UniProt P09601).
T1 sequence: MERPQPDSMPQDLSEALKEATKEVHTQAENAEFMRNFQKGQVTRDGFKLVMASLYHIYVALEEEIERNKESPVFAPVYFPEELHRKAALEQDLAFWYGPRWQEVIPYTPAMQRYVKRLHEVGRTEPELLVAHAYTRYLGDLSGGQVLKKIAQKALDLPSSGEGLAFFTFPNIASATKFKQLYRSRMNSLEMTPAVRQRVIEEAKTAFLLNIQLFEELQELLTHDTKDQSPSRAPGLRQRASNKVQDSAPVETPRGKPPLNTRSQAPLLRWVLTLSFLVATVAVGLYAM
As to the kind of experiment: condition: only untreated cells (no Hemin, no ΔHO-1); co-IP; untreated (control) HUVECs, no ΔHO-1 and no Hemin; precipitated by primary antibody, Western blot.

Test [2] has as its target T1, Heme oxygenase-1 (HO-1), endogenous, induced by Hemin in HUVECs (human (endogenous in HUVECs)). As to the kind of experiment: co-IP; HUVECs transfected with ΔHO-1 or treated with Hemin; precipitated by primary antibody (anti-HO-1 or anti-NPM1 listed), Western blot.
The target of test [3] is T2, ΔHO-1, truncated heme oxygenase-1 without transmembrane segment (aa1-266), with a Flag tag (UniProt P09601).
T2 sequence: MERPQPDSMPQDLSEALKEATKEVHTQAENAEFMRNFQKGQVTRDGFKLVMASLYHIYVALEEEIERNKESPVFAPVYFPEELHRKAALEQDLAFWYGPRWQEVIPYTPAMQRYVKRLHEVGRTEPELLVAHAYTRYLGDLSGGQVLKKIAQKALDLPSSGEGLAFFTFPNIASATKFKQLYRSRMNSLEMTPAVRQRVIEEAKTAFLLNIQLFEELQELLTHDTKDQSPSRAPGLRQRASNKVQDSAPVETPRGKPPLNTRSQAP
The test is described as above.

The target of the next test is T3, GST-HO-1_(66-130) (UniProt P09601).
T3 sequence: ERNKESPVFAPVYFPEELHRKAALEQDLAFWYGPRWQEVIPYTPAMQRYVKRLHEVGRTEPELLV
As to the kind of experiment: pull-down; GST-HO-1 fragments on GST Tag Immunomagnetic Beads; NPM1 protein overexpressed by plasmid incubated with the beads 1 h at 37 °C; Western blot; only the target purified.

For another test, the target named is T4, GST-HO-1_(1-65) (UniProt P09601).
T4 sequence: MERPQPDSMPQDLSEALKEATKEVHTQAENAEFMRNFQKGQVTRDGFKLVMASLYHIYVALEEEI
The description is as above.

A further test has as its target T5, GST-HO-1_(131-266) (UniProt P09601).
T5 sequence: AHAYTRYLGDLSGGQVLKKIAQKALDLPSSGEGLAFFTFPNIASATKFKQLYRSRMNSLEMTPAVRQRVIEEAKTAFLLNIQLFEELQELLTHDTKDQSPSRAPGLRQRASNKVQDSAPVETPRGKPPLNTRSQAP
The description is as above.

In another test the target is GST-NPM1_(C275S) (UniProt P06748). As to the kind of experiment: pull-down; GST-NPM1 fusion proteins on GST Tag Immunomagnetic Beads; HO-1 protein induced by Hemin incubated with the beads 1 h at 37 °C; Western blot; only the target purified.
In the next test the target is GST-NPM1 (aa120-188) (UniProt P06748). The test is described as above.
A further test addresses GST-NPM1 wild type (UniProt P06748). The description is as above.
The target in another test is GST-NPM1 (aa189-294) (UniProt P06748). The description is as above.
Test [4] addresses GST-NPM1 (aa1-119), N-terminal region (UniProt P06748). The test is described as above.

Regarding “Nucleophosmin (NPM1), endogenous in HUVECs (from UniProt P06748 1-294)”, the binding result in [1] was “no binding”; in test [2] it was “binds”; in test [3], “binds”.
In the case of “NPM1 wild type (with a Flag tag), overexpressed by plasmid (from UniProt P06748 1-294)”, the figures for the binding entry with GST-HO-1_(66-130), with GST-HO-1_(1-65) and with GST-HO-1_(131-266) were “no binding”, “no binding” and “binds”, respectively.

B1: Heme oxygenase-1 (HO-1), endogenous, induced by Hemin in HUVECs (protein, UniProt P09601 1-288)
chain: T1 sequence
On to B1, for which the binding entry in the test with GST-NPM1_(C275S) is “binds”; with GST-NPM1 (aa120-188), “no binding”; in the test with GST-NPM1 wild type it was “binds”; in the test with GST-NPM1 (aa189-294), “no binding”; in test [4], “binds”.
